Test results reported in paper PMC3578785, “Improved BM212 MmpL3 Inhibitor Analogue Shows Efficacy in Acute Murine Model of Tuberculosis Infection” (PLoS ONE, 2013).
Converted amounts (≈) assume the structure as drawn. “And” between values parts separate entries of the source, which are not always exact repeats. Equal values may be shown once.

Tested on: M. tuberculosis H37Rv
Test: microbe, parasite or virus in culture
Type: cell-based, Mycobacterium tuberculosis
Details: for MIC, antimycobacterial activity against M. tuberculosis H37Rv: aerobic conditions; for MIC: Mycobacterium tuberculosis, H37RV, read-out: MIC, antimycobacterial activity against M. tuberculosis H37Rv

SMILES | MIC, antimycobacterial activity against M. tuberculosis H37Rv | MIC
Cc1ccc(-c2cc(CN3CCSCC3)c(C)n2-c2ccc(F)cc2)cc1 [Compound 2] | 0.16 µM (≈ 0.0609 µg/mL) | –
COc1ccc(-c2cc(CN3CCSCC3)c(C)n2-c2ccc(F)cc2)cc1 [Compound 3] | 0.2 µM and 0.20 µM | –
CSc1ccc(-c2cc(CN3CCSCC3)c(C)n2-c2ccc(F)cc2)cc1 [Compound 4] | 0.16 µM (≈ 0.066 µg/mL) | –
CCCc1ccc(-n2c(-c3ccc(OC)cc3)cc(CN3CCOCC3)c2C)cc1 [Compound 24] | 0.16 µM (≈ 0.0647 µg/mL) | –
COc1ccc(-c2cc(CN3CCOCC3)c(C)n2-c2ccc(C(C)C)cc2)cc1 [Compound 25] | 0.2 µM (≈ 0.0809 µg/mL) | –
NNC(=O)c1ccncc1 [Isoniazid] | – | 1.8 µM (≈ 0.247 µg/mL)
CO[C@H]1/C=C/O[C@@]2(C)Oc3c(C)c(O)c4c(O)c(c(/C=N/N5CCN(C)CC5)c(O)c4c3C2=O)NC(=O)/C(C)=C\C=C\[C@H](C)[C@H](O)[C@@H](C)[C@@H](O)[C@@H](C)[C@H](OC(C)=O)[C@@H]1C [Rifampin, reference compound] | – | 0.02 µM (≈ 0.0165 µg/mL)
